The campaign covered roughly 310,000 compounds. About 2,200 (0.71%) showed an effect of 50% or more. The effect is printed as a negative number. This is one part of the list.

The target of the assay is human ether-à-go-go-related gene (hERG) potassium channel (human, UniProt Q12809). As to the kind of experiment: primary screen, population patch clamp on CHO cells stably expressing hERG.
Chain of human ether-à-go-go-related gene (hERG) potassium channel (Q12809 whole entry, looked up): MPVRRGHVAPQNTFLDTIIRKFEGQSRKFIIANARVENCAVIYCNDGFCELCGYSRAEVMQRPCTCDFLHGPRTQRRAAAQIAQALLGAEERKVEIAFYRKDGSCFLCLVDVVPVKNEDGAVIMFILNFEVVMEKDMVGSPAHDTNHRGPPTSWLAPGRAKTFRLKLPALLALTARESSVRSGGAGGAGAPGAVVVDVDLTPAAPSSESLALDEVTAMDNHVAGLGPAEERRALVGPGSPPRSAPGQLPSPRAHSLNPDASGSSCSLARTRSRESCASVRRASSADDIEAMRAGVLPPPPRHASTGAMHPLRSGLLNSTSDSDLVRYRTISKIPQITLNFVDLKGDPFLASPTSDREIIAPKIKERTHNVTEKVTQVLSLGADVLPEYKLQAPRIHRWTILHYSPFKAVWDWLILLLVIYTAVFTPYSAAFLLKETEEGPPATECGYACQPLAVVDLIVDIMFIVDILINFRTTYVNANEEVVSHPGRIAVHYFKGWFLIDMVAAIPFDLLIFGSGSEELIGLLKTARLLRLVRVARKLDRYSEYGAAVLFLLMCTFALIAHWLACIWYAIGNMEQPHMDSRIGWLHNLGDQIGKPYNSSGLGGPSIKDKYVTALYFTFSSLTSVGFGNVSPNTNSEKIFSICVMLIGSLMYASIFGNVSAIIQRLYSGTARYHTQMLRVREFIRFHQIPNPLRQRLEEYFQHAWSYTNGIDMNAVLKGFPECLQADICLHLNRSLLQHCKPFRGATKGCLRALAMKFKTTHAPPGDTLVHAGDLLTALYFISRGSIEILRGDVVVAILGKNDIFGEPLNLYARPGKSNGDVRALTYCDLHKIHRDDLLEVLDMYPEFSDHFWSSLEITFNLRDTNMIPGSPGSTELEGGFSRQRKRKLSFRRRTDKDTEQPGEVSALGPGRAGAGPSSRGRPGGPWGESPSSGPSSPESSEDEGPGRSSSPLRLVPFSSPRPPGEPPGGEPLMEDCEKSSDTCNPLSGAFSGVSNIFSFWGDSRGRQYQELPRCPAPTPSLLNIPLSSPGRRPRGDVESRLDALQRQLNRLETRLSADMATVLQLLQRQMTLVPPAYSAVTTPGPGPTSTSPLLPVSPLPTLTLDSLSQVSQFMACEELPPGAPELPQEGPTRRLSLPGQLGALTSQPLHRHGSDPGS
Consider `Cn1c(N)c(C(=O)COC(=O)c2ccnc3ccccc23)c(=O)n(C)c1=O`, for which the “hERG current change (%, negative = inhibition) at 1uM” value is reported as 11.1%.
As to `NS(=O)(=O)c1ccc(NC(=O)COc2ncnc3sccc23)cc1`, the “hERG current change (%, negative = inhibition) at 1uM” value stood at 14.6%.
The figure for `CCC1CCCCN1S(=O)(=O)c1ccc(-n2cnnn2)c(C)c1` (stereo not shown) is 16.8%; for `Cc1nn(Cc2noc(C(=O)NC3CCC(C)CC3)n2)c(C)c1Br` (stereo not shown) it is 21%.
The figure for `O=C(NCc1ccncc1)c1ccc(N2CCCC2)c([N+](=O)[O-])c1` is 2.33%; for `Cc1ccc(NC(=O)/C(=C\c2ccc([N+](=O)[O-])cc2)NC(=O)c2ccccc2)cc1` it is 2.45%; for `CCC(C)[C@H]1CNCCN1CC1(c2ccccc2)CC1` (stereo partly shown) it is 6.47%.
The figure for `Cc1noc(C)c1CSCC(=O)Nc1nc2ccc(Oc3ccccc3)cc2s1` is -3.98%; for `CN(C)c1cc[n+](/C(C(=S)Nc2ccc(SC(F)F)cc2)=C(/[O-])c2ccccc2)cc1` it is 7.6%; for `CCCC1(C(=O)OCC)NC(c2ccc(O)cc2)C2C(=O)N(c3ccc4c(c3)OCCO4)C(=O)C21` (stereo not shown) it is 7.55%.
Take `CC(OC(=O)c1ccc2ccccc2n1)C(=O)c1ccccc1` (stereo not shown): the “hERG current change (%, negative = inhibition) at 1uM” value worked out at 0.749%.
With `COc1ccc(C2=NOC(C(=O)N3CCCCCC3)C2)cc1OC` (stereo not shown) the figure was 2.22%.
With `Cc1cc(C)c(NC(=O)c2cnn(C)c2)c(C)c1`, the “hERG current change (%, negative = inhibition) at 1uM” value is -0.429%.
With `Cn1c(=O)c2sccc2n2c(CCCC(=O)Nc3ccc(F)cc3F)nnc12` the figure was 19.1%; with `O=C(CCSc1ccc(F)cc1)NNC(=O)c1ccccc1Cl`, 9.92%; with `COc1ccccc1/C=N\Nc1cc(C)nc(-n2nc(C)cc2C)n1`, 8.23%.
The figure for `Cl.O=C(CN1CCOCC1)NC1C2CC3CC(C2)CC1C3` (stereo not shown) is 0.888%; for `Cc1cc(C)cc(NC(=O)CN2CCc3cc4c(cc3C2C)OCCCO4)c1` (stereo not shown) it is 7.79%.
With `O=C(CC1S/C(=N/N=C2CCCCCC2)NC1=O)Nc1ccc(Br)cc1F` (stereo not shown), the “hERG current change (%, negative = inhibition) at 1uM” value is reported as 3.64%.
`COc1cccc(C=Nc2ccccc2C(=O)Nc2nccs2)c1OC`: the “hERG current change (%, negative = inhibition) at 1uM” value was determined as 9.17%.
With `CCCNC(=O)c1oc2ccc3c(c2c1C)C(O)CC(C)(C)O3` (stereo not shown) the figure was 5.69%.
For the compound `Cc1cccc(NC(=O)c2ccc(COc3ccc(Cl)cc3Cl)o2)n1`, the “hERG current change (%, negative = inhibition) at 1uM” value came to 14.6%.
The figure for `O=C(NC1CCCCC1)C1CCCN(S(=O)(=O)c2cccs2)C1` (stereo not shown) is 16.9%; for `CN1C(=O)[C@@H]2[C@@H]3C[C@@H]([C@H]4ON=C(c5ccc(Cl)cc5Cl)[C@@H]34)[C@@H]2C1=O` it is -4.33%; for `O=C(N1CCCCC1)C1(S(=O)(=O)c2ccccc2)CC=CC1` it is 10.4%.
In the case of `COc1cccc(CNC(=O)CCCN2C(=O)C(c3ccccc3)Oc3cccnc32)c1OC` (stereo not shown), the “hERG current change (%, negative = inhibition) at 1uM” value was found to be 6.7%.
The figure for `O=C(/C=C/c1ccc(Cl)cc1)Nn1c(-c2cccs2)nc2ccccc2c1=O` is 18%; for `O=C(Nc1ccc(N2CCCCC2)c(C(=O)O)c1)c1ccco1` it is 7.98%.
For `COC(=O)c1ccc(N2C(=O)CC(N3CCN(C(=O)c4ccco4)CC3)C2=O)cc1` (stereo not shown), the “hERG current change (%, negative = inhibition) at 1uM” value is on record as -8.41%.
In the case of `COc1ccc(OC)c(N(C(=O)c2snc(C(N)=O)c2N)C(C(=O)NCC2CCCO2)c2ccc3ncccc3c2)c1` (stereo not shown), the “hERG current change (%, negative = inhibition) at 1uM” value is listed as 11.5%.
Regarding `O=C(Cn1c(=O)oc2cccnc21)Nc1ccc(C(F)(F)F)cc1`, the “hERG current change (%, negative = inhibition) at 1uM” value was determined as 11.2%.
The figure for `Cc1ccc2nc(N/C(=N/S(=O)(=O)c3ccc(F)cc3)c3ccccc3)sc2c1` is 26.8%; for `Cc1cc(C(=O)OCC(=O)c2cccc([N+](=O)[O-])c2)c2ccccc2n1` it is 11.5%.
With `C=CCn1c(C2CC(=O)N(c3ccc(C)cc3)C2)nc2ccccc21` (stereo not shown) the figure was -5.61%; with `Cc1ccc(OCC(=O)O/N=C(\N)c2cccc([N+](=O)[O-])c2)cc1C`, 10.6%; with `CCCC12CN3CC(CCC)(CN(C1)C3c1ccco1)C2=O` (stereo not shown), 8.47%.
With `O=C(CCCCCN1C(=O)[C@@H]2Cc3ccccc3CN2C1=O)Nc1ccccc1F` the figure was 10.4%; with `COCc1[nH]c(=S)c(C#N)cc1C(=O)OC`, 12.9%.
In the case of `O=C(CSc1nnc2c(n1)[nH]c1ccc(F)cc12)N1CCOCC1`, the “hERG current change (%, negative = inhibition) at 1uM” value is listed as 16.9%.
With `CC(C)(O)C#Cc1ccc(CN2CCC(CO)(CCc3ccccc3)CC2)cc1` the figure was -1.63%.
Take `COc1ccc(C2Nc3ccccc3C(=O)N2NS(=O)(=O)c2ccccc2)c(OC)c1` (stereo not shown): the “hERG current change (%, negative = inhibition) at 1uM” value was 4.72%.
With `CN(C(=O)c1ccco1)c1nc(CC(=O)Nc2ccccc2)cs1` the figure was -7.22%; with `COc1cccc(NS(=O)(=O)c2ccc3c(c2)n(C)c(=O)c(=O)n3C)c1`, 4.37%.
With `O=C(CSc1ccccn1)c1ccc2c(c1)OCO2` the figure was 15.7%.
As to `COC(=O)N/N=C/c1cc(C)n(-c2cccc3ccccc23)c1C`, the “hERG current change (%, negative = inhibition) at 1uM” value is on record as 5.93%.
As to `Cl.O=C(CCN1CCc2ccccc2C1)Nc1ccc(F)c(F)c1`, the “hERG current change (%, negative = inhibition) at 1uM” value is given as 10.6%.
With `CN(CCO)CC(O)CN(c1ccccc1)c1ccccc1.Cl` (stereo not shown) the figure was -11.9%; with `CCOC(=O)c1ccc(Nc2c(OCC)c(=O)c2=O)cc1`, 4.61%; with `N/C(=N\OC(=O)COc1ccc(Cl)cc1Cl)c1ccccn1`, 7.37%.
For `Cc1ccc(S(=O)(=O)Nc2cccc(C(=O)NCC(C)(C)N3CCOCC3)c2)cc1F`, the “hERG current change (%, negative = inhibition) at 1uM” value is reported as -13.3%.
With `COc1ccc(S(=O)(=O)N2CCN(C(=O)c3cccnc3)CC2)cc1OC` the figure was 9.73%.
The figure for `Cc1ccc(S(=O)(=O)NCc2cccnc2)cc1C` is 13.7%.
Take `O=C(Nc1cccc(S(=O)(=O)N2CCCCC2)c1)c1cccs1`: the “hERG current change (%, negative = inhibition) at 1uM” value turned out to be 2.75%.
`CCN(CCCn1c(=S)[nH]c2ncccc2c1=O)c1ccccc1`: the “hERG current change (%, negative = inhibition) at 1uM” value was determined as 10.5%.
As to `COc1ccc(-c2cc(C#N)nc(Cl)n2)cc1`, the “hERG current change (%, negative = inhibition) at 1uM” value is listed as 13.2%.
